Data as given in patent publication US20130333059A1 (Johns Hopkins, published 2013).

What was measured:
Experiment in all cases: GST affinity chromatography of SKBR3 and MCF10A cell extracts, SDS-PAGE with silver/Coomassie stain
DNA-PKcs = biological target: T1, DNA-PKcs (human, UniProt P78527)
T1 construct: Endogenous protein from cell extracts; also called catalytic subunit of DNA-PK; >250 kDa band

Ku70 = biological target: T2, Ku70 (human, UniProt P12956)
T2 construct: Endogenous protein from cell extracts; also called 70 kDa band; HsKu70

[1] = biological target: T3, poly(ADP) ribose polymerase (PARP) (human, UniProt P09874)
T3 construct: Endogenous protein from cell extracts; also called 110 kDa band

Ku80 = biological target: T4, Ku80 (human, UniProt P13010)
T4 construct: also called Ku86; 85 kDa band

Ku70, sequence (P12956 2-609 limits assumed): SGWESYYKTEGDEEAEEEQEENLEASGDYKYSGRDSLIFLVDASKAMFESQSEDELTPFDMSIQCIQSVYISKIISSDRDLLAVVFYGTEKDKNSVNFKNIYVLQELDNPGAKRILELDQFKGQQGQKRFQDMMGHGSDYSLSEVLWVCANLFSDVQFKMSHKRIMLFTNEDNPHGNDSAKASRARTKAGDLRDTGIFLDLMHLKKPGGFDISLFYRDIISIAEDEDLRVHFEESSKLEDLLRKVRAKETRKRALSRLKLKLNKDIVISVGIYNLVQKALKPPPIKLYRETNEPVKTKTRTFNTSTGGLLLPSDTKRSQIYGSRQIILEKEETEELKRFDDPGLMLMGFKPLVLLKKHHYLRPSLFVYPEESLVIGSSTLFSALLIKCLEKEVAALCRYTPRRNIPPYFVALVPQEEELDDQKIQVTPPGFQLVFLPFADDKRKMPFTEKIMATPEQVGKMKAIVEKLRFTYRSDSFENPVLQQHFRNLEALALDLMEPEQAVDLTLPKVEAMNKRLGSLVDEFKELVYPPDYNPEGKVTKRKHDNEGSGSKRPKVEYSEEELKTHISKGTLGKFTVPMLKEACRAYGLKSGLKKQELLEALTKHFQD
T3 sequence (P09874 2-1014): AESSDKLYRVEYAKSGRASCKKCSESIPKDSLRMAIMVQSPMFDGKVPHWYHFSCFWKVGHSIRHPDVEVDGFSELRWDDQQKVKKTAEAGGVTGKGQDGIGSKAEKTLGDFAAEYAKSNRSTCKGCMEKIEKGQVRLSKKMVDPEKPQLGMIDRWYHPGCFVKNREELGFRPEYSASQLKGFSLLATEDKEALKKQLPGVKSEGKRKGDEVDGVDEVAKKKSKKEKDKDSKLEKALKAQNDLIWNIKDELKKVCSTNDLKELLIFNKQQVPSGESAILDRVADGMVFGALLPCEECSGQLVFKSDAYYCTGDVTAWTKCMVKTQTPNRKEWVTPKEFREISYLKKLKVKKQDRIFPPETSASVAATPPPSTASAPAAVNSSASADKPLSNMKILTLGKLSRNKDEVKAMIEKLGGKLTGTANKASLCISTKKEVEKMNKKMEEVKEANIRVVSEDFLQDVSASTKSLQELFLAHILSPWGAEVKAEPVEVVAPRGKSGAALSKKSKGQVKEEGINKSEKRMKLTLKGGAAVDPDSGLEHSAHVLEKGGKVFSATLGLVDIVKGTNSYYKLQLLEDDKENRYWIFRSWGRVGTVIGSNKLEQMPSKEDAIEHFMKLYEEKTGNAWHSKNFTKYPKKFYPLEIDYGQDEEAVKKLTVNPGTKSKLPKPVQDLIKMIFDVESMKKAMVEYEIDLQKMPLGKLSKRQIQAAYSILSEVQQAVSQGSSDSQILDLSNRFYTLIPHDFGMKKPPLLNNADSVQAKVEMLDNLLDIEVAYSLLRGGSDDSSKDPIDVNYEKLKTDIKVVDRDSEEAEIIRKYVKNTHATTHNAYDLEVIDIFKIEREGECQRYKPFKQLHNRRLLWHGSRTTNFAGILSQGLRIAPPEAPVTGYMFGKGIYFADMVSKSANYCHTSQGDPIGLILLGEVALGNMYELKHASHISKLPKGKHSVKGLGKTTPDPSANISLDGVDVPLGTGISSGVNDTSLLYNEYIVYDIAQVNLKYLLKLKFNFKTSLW
Ku80, sequence (P13010 2-732 limits assumed): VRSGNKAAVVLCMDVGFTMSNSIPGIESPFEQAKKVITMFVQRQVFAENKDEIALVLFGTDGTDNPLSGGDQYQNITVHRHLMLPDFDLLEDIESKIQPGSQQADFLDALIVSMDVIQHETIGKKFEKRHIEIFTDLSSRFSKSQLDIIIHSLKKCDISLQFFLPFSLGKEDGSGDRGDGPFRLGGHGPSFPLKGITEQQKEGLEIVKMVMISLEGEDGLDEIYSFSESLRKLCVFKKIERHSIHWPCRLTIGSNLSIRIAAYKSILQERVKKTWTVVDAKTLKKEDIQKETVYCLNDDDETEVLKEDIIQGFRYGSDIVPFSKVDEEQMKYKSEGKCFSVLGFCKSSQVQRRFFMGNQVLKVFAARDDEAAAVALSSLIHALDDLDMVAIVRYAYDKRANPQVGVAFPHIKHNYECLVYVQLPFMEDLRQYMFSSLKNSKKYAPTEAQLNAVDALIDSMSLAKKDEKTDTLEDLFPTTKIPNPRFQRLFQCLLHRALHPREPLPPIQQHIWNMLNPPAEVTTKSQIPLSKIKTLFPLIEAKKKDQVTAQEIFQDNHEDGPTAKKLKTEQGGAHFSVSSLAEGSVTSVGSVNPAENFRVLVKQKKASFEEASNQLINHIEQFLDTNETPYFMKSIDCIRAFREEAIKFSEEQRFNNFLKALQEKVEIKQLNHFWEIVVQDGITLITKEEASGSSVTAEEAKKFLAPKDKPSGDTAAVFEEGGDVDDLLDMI

binding result (DNA-PKcs): no binding
binding result (Ku70): no binding
binding result [1]: no binding
binding result (Ku80): no binding
B1: GST (other)
chain: not shown
notes: also called GST alone; GST-Sepharose
